# This is one part of the list.
# B1: Clec49 (Caenorhabditis elegans) (protein)
# chain: MTRLTLLLFGLLGAATAQTCNTGGIYNEQFNRCYQYFTAPAQFSFAEQQCNLLGGHLASVQNGQENALLQSNAANSFKRSNYSDYWIGATDLETSGTWKWTDPSVTFDYSNWQLGEPQSGSDCAIQDKGDGTWSAIGCTSYRPYVCVTPVIMTATCPPITTPIPTTCPTPAPCPIKQCVPSCDQGWTYFSPTDFCYRVYHGEKFNDAEASCVLLGGHLASIHSLTENTFVNNIASCGIKEGKYEHLAWIGMRKVGQDWVWTDGTPSDYFNWAPKQPDNPKKELCVQTAPDLSHDKWYENWNNLECNEVMRAYICKKASIHN
# Legend:
# Assay in all cases: glycan array binding signal (z-score within array); higher = stronger binding
# Conditions in all cases: glycan notation: IUPAC condensed, linker removed
# [1] = target: Neu5Ac(a2-3)Gal(b1-4)GlcNAc(b1-6)GalNAc
# Outline: (§1)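 Glycan array binding is given as a within-array Z-score, which can be read as non-binding when negative. The arrays, 3228 of them, came from the Consortium for Functional Glycomics database and were retained only where the protein sequence was available. Z-scores were averaged across arrays of the same protein sequence at different concentrations or buffers and across linkers.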
# [2] = target: Neu5Ac(a2-3)Gal(b1-4)GlcNAc(b1-6)[Gal(b1-3)]GalNAc
# Outline: as §1
# [3] = target: Neu5Ac(a2-3)Gal(b1-4)GlcNAc(b1-6)[Neu5Ac(a2-3)Gal(b1-3)]GalNAc
# Outline: as §1
# [4] = target: Neu5Ac(a2-3)Gal(b1-4)GlcNAc6S
# Outline: as §1
# [5] = target: Neu5Ac(a2-3)Gal(b1-4)[Fuc(a1-3)]GlcNAc
# Outline: as §1
# [6] = target: Neu5Ac(a2-3)Gal(b1-4)[Fuc(a1-3)]GlcNAc(b1-2)Man
# Outline: as §1
# [7] = target: Neu5Ac(a2-3)Gal(b1-4)[Fuc(a1-3)]GlcNAc(b1-3)Gal
# Outline: as §1
# [8] = target: Neu5Ac(a2-3)Gal(b1-4)[Fuc(a1-3)]GlcNAc(b1-3)Gal(b1-4)GlcNAc
# Outline: as §1
# [9] = target: Neu5Ac(a2-3)Gal(b1-4)[Fuc(a1-3)]GlcNAc(b1-3)Gal(b1-4)[Fuc(a1-3)]GlcNAc(b1-3)Gal(b1-4)[Fuc(a1-3)]GlcNAc
# Outline: as §1
# [10] = target: Neu5Ac(a2-3)Gal(b1-4)[Fuc(a1-3)]GlcNAc(b1-3)GalNAc
# Outline: as §1
# [11] = target: Neu5Ac(a2-3)Gal(b1-4)[Fuc(a1-3)]GlcNAc(b1-6)[Gal(b1-3)]GalNAc
# Outline: as §1
# [12] = target: Neu5Ac(a2-3)Gal(b1-4)[Fuc(a1-3)]GlcNAc(b1-6)[Neu5Ac(a2-3)Gal(b1-3)]GalNAc
# Outline: as §1
# [13] = target: Neu5Ac(a2-3)Gal(b1-4)[Fuc(a1-3)]GlcNAc6S
# Outline: as §1
# [14] = target: Neu5Ac(a2-3)Gal6S(b1-4)GlcNAc
# Outline: as §1
# [15] = target: Neu5Ac(a2-3)Gal6S(b1-4)[Fuc(a1-3)]GlcNAc
# Outline: as §1
# Neu5Ac(a2-3)GalNAc = target: Neu5Ac(a2-3)GalNAc
# Outline: as §1
# [16] = target: Neu5Ac(a2-3)GalNAc(b1-4)GlcNAc
# Outline: as §1
# [17] = target: Neu5Ac(a2-3)[GalNAc(b1-4)]Gal(b1-4)Glc
# Outline: as §1
# [18] = target: Neu5Ac(a2-3)[GalNAc(b1-4)]Gal(b1-4)GlcNAc
# Outline: as §1
# [19] = target: Neu5Ac(a2-3)[GalNAc(b1-4)]Gal(b1-4)GlcNAc(b1-3)GalNAc
# Outline: as §1
# [20] = target: Neu5Ac(a2-3)[Neu5Ac(a2-6)]GalNAc
# Outline: as §1
# Neu5Ac(a2-6)Gal = target: Neu5Ac(a2-6)Gal
# Outline: as §1
# [21] = target: Neu5Ac(a2-6)Gal(b1-3)GlcNAc(b1-3)[Gal(b1-4)GlcNAc(b1-6)]Gal(b1-4)Glc
# Outline: as §1
# Neu5Ac(a2-6)Gal(b1-4)Glc = target: Neu5Ac(a2-6)Gal(b1-4)Glc
# Outline: as §1
# [22] = target: Neu5Ac(a2-6)Gal(b1-4)GlcNAc
# Outline: as §1
# [23] = target: Neu5Ac(a2-6)Gal(b1-4)GlcNAc(b1-2)Man
# Outline: as §1
# [24] = target: Neu5Ac(a2-6)Gal(b1-4)GlcNAc(b1-2)Man(a1-3)Man(b1-4)GlcNAc(b1-4)GlcNAc
# Outline: as §1
# [25] = target: Neu5Ac(a2-6)Gal(b1-4)GlcNAc(b1-2)Man(a1-3)[Gal(b1-4)GlcNAc(b1-2)Man(a1-6)]Man(b1-4)GlcNAc(b1-4)GlcNAc
# Outline: as §1
# [26] = target: Neu5Ac(a2-6)Gal(b1-4)GlcNAc(b1-2)Man(a1-3)[GlcNAc(b1-2)Man(a1-6)]Man(b1-4)GlcNAc(b1-4)GlcNAc
# Outline: as §1
# [27] = target: Neu5Ac(a2-6)Gal(b1-4)GlcNAc(b1-2)Man(a1-3)[GlcNAc(b1-4)][Neu5Ac(a2-6)Gal(b1-4)GlcNAc(b1-2)Man(a1-6)]Man(b1-4)GlcNAc(b1-4)GlcNAc
# Outline: as §1
# [28] = target: Neu5Ac(a2-6)Gal(b1-4)GlcNAc(b1-2)Man(a1-3)[Man(a1-6)]Man(b1-4)GlcNAc(b1-4)GlcNAc
# Outline: as §1
# [29] = target: Neu5Ac(a2-6)Gal(b1-4)GlcNAc(b1-2)Man(a1-3)[Neu5Ac(a2-3)Gal(b1-4)GlcNAc(b1-2)Man(a1-6)]Man(b1-4)GlcNAc(b1-4)GlcNAc
# Outline: as §1
# [30] = target: Neu5Ac(a2-6)Gal(b1-4)GlcNAc(b1-2)Man(a1-3)[Neu5Ac(a2-6)Gal(b1-4)GlcNAc(b1-2)Man(a1-6)]Man(b1-4)GlcNAc(b1-4)GlcNAc
# Outline: as §1
# [31] = target: Neu5Ac(a2-6)Gal(b1-4)GlcNAc(b1-2)Man(a1-3)[Neu5Ac(a2-6)Gal(b1-4)GlcNAc(b1-2)Man(a1-6)]Man(b1-4)GlcNAc(b1-4)[Fuc(a1-6)]GlcNAc
# Outline: as §1
# [32] = target: Neu5Ac(a2-6)Gal(b1-4)GlcNAc(b1-2)Man(a1-6)Man(b1-4)GlcNAc(b1-4)GlcNAc
# Outline: as §1
# [33] = target: Neu5Ac(a2-6)Gal(b1-4)GlcNAc(b1-2)Man(a1-6)[Gal(b1-4)GlcNAc(b1-2)Man(a1-3)]Man(b1-4)GlcNAc(b1-4)GlcNAc
# Outline: as §1
# [34] = target: Neu5Ac(a2-6)Gal(b1-4)GlcNAc(b1-2)Man(a1-6)[GlcNAc(b1-2)Man(a1-3)]Man(b1-4)GlcNAc(b1-4)GlcNAc
# Outline: as §1
# [35] = target: Neu5Ac(a2-6)Gal(b1-4)GlcNAc(b1-2)Man(a1-6)[Man(a1-3)]Man(b1-4)GlcNAc(b1-4)GlcNAc
# Outline: as §1
# [36] = target: Neu5Ac(a2-6)Gal(b1-4)GlcNAc(b1-2)[Neu5Ac(a2-6)Gal(b1-4)GlcNAc(b1-4)]Man(a1-3)[GlcNAc(b1-4)][Neu5Ac(a2-6)Gal(b1-4)GlcNAc(b1-2)[Neu5Ac(a2-6)Gal(b1-4)GlcNAc(b1-6)]Man(a1-6)]Man(b1-4)GlcNAc(b1-4)GlcNAc
# Outline: as §1
# [37] = target: Neu5Ac(a2-6)Gal(b1-4)GlcNAc(b1-2)[Neu5Ac(a2-6)Gal(b1-4)GlcNAc(b1-4)]Man(a1-3)[GlcNAc(b1-4)][Neu5Ac(a2-6)Gal(b1-4)GlcNAc(b1-4)Man(a1-6)]Man(b1-4)GlcNAc(b1-4)GlcNAc
# Outline: as §1
# [38] = target: Neu5Ac(a2-6)Gal(b1-4)GlcNAc(b1-2)[Neu5Ac(a2-6)Gal(b1-4)GlcNAc(b1-6)]Man(a1-6)[Neu5Ac(a2-6)Gal(b1-4)GlcNAc(b1-2)Man(a1-3)][GlcNAc(b1-4)]Man(b1-4)GlcNAc(b1-4)GlcNAc
# Outline: as §1
# [39] = target: Neu5Ac(a2-6)Gal(b1-4)GlcNAc(b1-3)Gal(b1-3)GlcNAc
# Outline: as §1
# [40] = target: Neu5Ac(a2-6)Gal(b1-4)GlcNAc(b1-3)Gal(b1-4)GlcNAc
# Outline: as §1
# [41] = target: Neu5Ac(a2-6)Gal(b1-4)GlcNAc(b1-3)Gal(b1-4)GlcNAc(b1-2)Man(a1-3)[Neu5Ac(a2-6)Gal(b1-4)GlcNAc(b1-3)Gal(b1-4)GlcNAc(b1-2)Man(a1-6)]GalNAc
# Outline: as §1
# [42] = target: Neu5Ac(a2-6)Gal(b1-4)GlcNAc(b1-3)Gal(b1-4)GlcNAc(b1-3)Gal(b1-4)GlcNAc
# Outline: as §1
# [43] = target: Neu5Ac(a2-6)Gal(b1-4)GlcNAc(b1-3)Gal(b1-4)GlcNAc(b1-3)Gal(b1-4)GlcNAc(b1-2)Man(a1-3)[Neu5Ac(a2-6)Gal(b1-4)GlcNAc(b1-3)Gal(b1-4)GlcNAc(b1-3)Gal(b1-4)GlcNAc(b1-2)Man(a1-6)]GalNAc
# Outline: as §1
binder,measurement,setting,value
B1,glycan array binding signal (z-score),[1],-0.469
same,glycan array binding signal (z-score),[2],0.588
same,glycan array binding signal (z-score),[3],-0.785
same,glycan array binding signal (z-score),[4],-0.851
same,glycan array binding signal (z-score),[5],-0.573
same,glycan array binding signal (z-score),[6],-0.257
same,glycan array binding signal (z-score),[7],-0.256
same,glycan array binding signal (z-score),[8],1.33
same,glycan array binding signal (z-score),[9],-0.269
same,glycan array binding signal (z-score),[10],14.5
same,glycan array binding signal (z-score),[11],1.99
same,glycan array binding signal (z-score),[12],0.677
same,glycan array binding signal (z-score),[13],-0.28
same,glycan array binding signal (z-score),[14],-0.253
same,glycan array binding signal (z-score),[15],-0.418
same,glycan array binding signal (z-score),Neu5Ac(a2-3)GalNAc,0.355
same,glycan array binding signal (z-score),[16],-0.261
same,glycan array binding signal (z-score),[17],-0.075
same,glycan array binding signal (z-score),[18],0.026
same,glycan array binding signal (z-score),[19],-0.142
same,glycan array binding signal (z-score),[20],-0.639
same,glycan array binding signal (z-score),Neu5Ac(a2-6)Gal,0.015
same,glycan array binding signal (z-score),[21],-0.806
same,glycan array binding signal (z-score),Neu5Ac(a2-6)Gal(b1-4)Glc,-0.317
same,glycan array binding signal (z-score),[22],-0.537
same,glycan array binding signal (z-score),[23],-0.03
same,glycan array binding signal (z-score),[24],0.494
same,glycan array binding signal (z-score),[25],0.001
same,glycan array binding signal (z-score),[26],-0.266
same,glycan array binding signal (z-score),[27],-0.797
same,glycan array binding signal (z-score),[28],0.717
same,glycan array binding signal (z-score),[29],0.348
same,glycan array binding signal (z-score),[30],1.88
same,glycan array binding signal (z-score),[31],0.251
same,glycan array binding signal (z-score),[32],-0.421
same,glycan array binding signal (z-score),[33],-0.549
same,glycan array binding signal (z-score),[34],0.526
same,glycan array binding signal (z-score),[35],0.336
same,glycan array binding signal (z-score),[36],-0.521
same,glycan array binding signal (z-score),[37],0.354
same,glycan array binding signal (z-score),[38],0.372
same,glycan array binding signal (z-score),[39],-0.498
same,glycan array binding signal (z-score),[40],-0.634
same,glycan array binding signal (z-score),[41],-0.184
same,glycan array binding signal (z-score),[42],-0.675
same,glycan array binding signal (z-score),[43],0.32

# From the supplement of paper PMC8728848
